Here are results for 37 molecules from PubChem BioAssay AID1745853 (National Center for Advancing Translational Sciences (NCATS), 2022).

Some of the results follow. The main result of the screen is listed elsewhere. These columns were measured beside it and carry no call.

Holding throughout (experiment): Primary Screen for Target Class Profiling of Small Molecule Inhibitors of Methyltransferases
For assay [1], the target named is Glycine N-methyltransferase (Homo sapiens) (UniProt Q14749). Particulars: purified enzyme, MTase-Glo SAH luminescence; measured here: GNMT inhibition; at 40 µM; stronger effect = lower value. An outline of the steps:
(§1)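 Each enzyme was assayed with SAM and its substrate. SAH formation detected by MTase-Glo luminescence; single-point 40 uM screen[…].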

Assay [2] has as its target Guanidinoacetate N-methyltransferase (Homo sapiens) (UniProt Q14353). The conditions noted are these: purified enzyme, MTase-Glo SAH luminescence; measured here: GAMT inhibition; at 40 µM; stronger effect = lower value. An outline of the steps:
as §1

In assay [3] the target is Histamine N-methyltransferase (Homo sapiens) (UniProt P50135). Particulars: purified enzyme, MTase-Glo SAH luminescence; measured here: HNMT inhibition; at 40 µM; stronger effect = lower value. An outline of the steps:
as §1

Assay [4] addresses Nicotinamide N-methyltransferase (Homo sapiens) (UniProt P40261). The conditions noted are these: purified enzyme, MTase-Glo SAH luminescence; measured here: NNMT inhibition; at 40 µM; stronger effect = lower value. The method in brief:
as §1

The target in assay [5] is Phenylethanolamine N-methyltransferase (Homo sapiens) (UniProt P11086). Particulars: purified enzyme, MTase-Glo SAH luminescence; measured here: PNMT inhibition; at 40 µM; stronger effect = lower value. An outline of the steps:
as §1
On the % scale 0 is the no-effect control and ±100 the full control effect.

On to `C[C@]1(O)CCN(C(=O)c2ccc3c(c2)OCC(=O)N3)C[C@@H]1O`, for which the activity change, negative = inhibition in assay [1] is -5.48%; in assay [2], -6.52%; in assay [3], -7.85%; in assay [4], -8.74%; in assay [5], 1.41%.

`Cc1ccc(C(=O)N(CC2CCN(Cc3ccccc3F)CC2)CC2CCCO2)s1` (stereo not drawn): the activity change, negative = inhibition in assay [1] is -2.33%; in assay [2] it was -7.33%; in assay [3], -2.43%; in assay [4], -10.9%; in assay [5], -22.5%.

`COc1ccccc1CNS(=O)(=O)c1cc2c(cc1C)n(C)c(=O)n2C`: the activity change, negative = inhibition in assay [1] is -5.17%; in assay [2] it was 3.47%; in assay [3] it was -8.41%; in assay [4], -10.9%; in assay [5] it was -7.99%.

For the molecule `COc1ccccc1CN1C(=O)c2cc(-c3ccco3)nn2CC1(C)C(=O)NC1CCCCC1` (stereo not drawn), the activity change, negative = inhibition in assay [1] is -11.2%; in assay [2], -10.8%; in assay [3], -0.546%; in assay [4], -10.4%; in assay [5] it was -6.08%.

As for `CCOC(=O)c1cc2n(n1)CC(C)(C(=O)NCCOC)N(c1ccc(C)c(C)c1)C2=O` (stereo not drawn), the activity change, negative = inhibition stood at 6.8% in assay [1]; 0.281% in assay [2]; 8.06% in assay [3]; 7.31% in assay [4]; 4.76% in assay [5].

On to `COC(=O)c1cc2n(n1)CC(C)(C(=O)NC1CCC(C)CC1)N(c1ccc(F)cc1C)C2=O` (stereo not drawn), for which the activity change, negative = inhibition is 2.07% in assay [1]; 3.51% in assay [2]; 4.98% in assay [3]; 3.14% in assay [4]; -0.277% in assay [5].

`COc1cccc(CN2CC(=O)N(Cc3ccc(Cl)cc3)c3ccccc3S2(=O)=O)c1`: the activity change, negative = inhibition in assay [1] came out at 14.9%; in assay [2], 3.81%; in assay [3], 12.8%; in assay [4] it was 3.1%; in assay [5], 9.58%.

With `CC1(C)C[C@@H]2[C@H](C1)[C@@]1(C)C[C@]13C(O)OC[C@]3(O)[C@H]2O` (stereo partly drawn), the activity change, negative = inhibition in assay [1] is -4.37%; in assay [2], -8.68%; in assay [3], 3.56%; in assay [4], -20.2%; in assay [5], -1.36%.

Regarding `COc1cc(N2CCC(N3CCN(C)CC3)CC2)ccc1Nc1ncnc(Nc2ccccc2S(=O)(=O)C(C)C)n1`, the activity change, negative = inhibition was 3.56% in assay [1]; 8.39% in assay [2]; -23.6% in assay [3]; -9.25% in assay [4]; 7.62% in assay [5].

As to `COc1cccc(CN2C(=O)c3cc(-c4cccs4)nn3CC2(C)C(=O)NC2CCCCCC2)c1` (stereo not drawn), the activity change, negative = inhibition was 5.8% in assay [1]; 0.398% in assay [2]; 9.13% in assay [3]; 0.562% in assay [4]; 2.63% in assay [5].

Consider `O=C(CCC1CCCN(Cc2cc3ccccc3s2)C1)Nc1ccccc1F` (stereo not drawn), for which the activity change, negative = inhibition was -6.53% in assay [1]; 1.27% in assay [2]; -4.39% in assay [3]; 0.865% in assay [4]; -4.24% in assay [5].

`COc1cc(OC)c(NC(=O)N2CCn3cccc3C2C)cc1Cl` (stereo not drawn): the activity change, negative = inhibition in assay [1] is -8.46%; in assay [2], -0.141%; in assay [3] it was -8.12%; in assay [4] it was -12.7%; in assay [5], -8.66%.

In the case of `CCN(CCO)CCCC(C)Nc1ccnc2cc(Cl)ccc12` (stereo not drawn), the activity change, negative = inhibition was 7.06% in assay [1]; 2.44% in assay [2]; -37% in assay [3]; -10.6% in assay [4]; -1.78% in assay [5].

In the case of `NC(=O)C1CCN(c2nc3c(-c4cccc(F)c4)nnn3c3ccc(Cl)cc23)CC1`, the activity change, negative = inhibition in assay [1] is 2.23%; in assay [2], 0%; in assay [3], 9.23%; in assay [4], 14.6%; in assay [5] it was 0.358%.

For `Cc1nc(Nc2ncc(C(=O)Nc3c(C)cccc3Cl)s2)cc(N2CCN(CCO)CC2)n1`, the activity change, negative = inhibition in assay [1] was -56.3%; in assay [2], -19.4%; in assay [3] it was -65.8%; in assay [4] it was -31.8%; in assay [5], -47.5%.

Regarding `CCOC(=O)c1cc2n(n1)CC(C)(C(=O)NCc1ccccc1OC)N(CCc1ccco1)C2=O` (stereo not drawn), the activity change, negative = inhibition in assay [1] was found to be 2.48%; in assay [2] it was 0.256%; in assay [3], 8.69%; in assay [4], 3.24%; in assay [5] it was 2.37%.

Consider `CCOC(=O)c1cc2n(n1)CC(C)(C(=O)NCc1ccc(C)cc1)N(c1cccc(CC)c1)C2=O` (stereo not drawn), for which the activity change, negative = inhibition in assay [1] is 2.37%; in assay [2], 4.17%; in assay [3] it was 7.26%; in assay [4] it was -3.71%; in assay [5], 0.372%.

Take `Cc1ccc(NC(=O)Cn2nc3n(Cc4ccccc4)c(=O)c4ccccc4n3c2=O)c(C)c1`: the activity change, negative = inhibition worked out at 4.43% in assay [1]; 1.58% in assay [2]; 6.46% in assay [3]; 5.12% in assay [4]; 3.17% in assay [5].

Consider `CC(NC(=O)CNC(=O)c1cccc(-c2ccc(C(F)(F)F)cc2)c1)c1ccc(F)cc1` (stereo not drawn), for which the activity change, negative = inhibition in assay [1] is -6.1%; in assay [2], -5.22%; in assay [3], -3.43%; in assay [4] it was -15.6%; in assay [5], 3.87%.

Consider `CC(C)NC(=O)N1CCCC1c1noc(CCC(=O)NCC2CC2)n1` (stereo not drawn), for which the activity change, negative = inhibition in assay [1] was -0.009%; in assay [2], 1.3%; in assay [3] it was 1.8%; in assay [4], 0.269%; in assay [5] it was 0.566%.

In the case of `N#Cc1ccc(CN2CC[C@H](c3nnc(Cc4ccccc4)o3)C2)cc1`, the activity change, negative = inhibition is -4.08% in assay [1]; 2.33% in assay [2]; 0.079% in assay [3]; -1.29% in assay [4]; -19.4% in assay [5].

Consider `Cc1cc(-c2nc3ccncc3[nH]2)c(C)[nH]1`, for which the activity change, negative = inhibition in assay [1] was -23.1%; in assay [2], -9.12%; in assay [3], -90.2%; in assay [4], -42.4%; in assay [5], -14.6%.

`Cc1cccc(NS(=O)(=O)c2cc3c(cc2Cl)n(C)c(=O)n3C)c1`: the activity change, negative = inhibition in assay [1] is 13.4%; in assay [2], 0.925%; in assay [3], 8.68%; in assay [4], 9.07%; in assay [5], 7.03%.

As to `CCN(CCCNC(=O)CCc1nnc2n(CCc3ccccc3)c(=O)c3ccccc3n12)c1cccc(C)c1`, the activity change, negative = inhibition was -4.12% in assay [1]; -0.596% in assay [2]; -10.2% in assay [3]; -2.15% in assay [4]; -10.2% in assay [5].

In the case of `COc1ccccc1CN[C@@H]1CCCN[C@@H]1c1ccccc1`, the activity change, negative = inhibition in assay [1] is 1.45%; in assay [2] it was 14.5%; in assay [3], -21.1%; in assay [4], -1.61%; in assay [5], 4.31%.

With `COc1nccnc1NC1CCN(C(=O)Cc2c(C)noc2C)CC1`, the activity change, negative = inhibition in assay [1] was -1.91%; in assay [2], -4.61%; in assay [3], 0.287%; in assay [4], -8.78%; in assay [5] it was -4.17%.

Regarding `CCCNC(=O)c1cc2n(n1)CC(C)(C(=O)NCc1ccc(F)cc1)N(C)C2=O` (stereo not drawn), the activity change, negative = inhibition in assay [1] was found to be 2.31%; in assay [2], 0%; in assay [3], 2.67%; in assay [4], 3.98%; in assay [5], 2.99%.

For the molecule `Cc1ccn(-c2ccc(-c3ncco3)cc2)c(=O)c1-c1ccc2nc(N)ncc2c1`, the activity change, negative = inhibition was -2.95% in assay [1]; 3.78% in assay [2]; 6.77% in assay [3]; -15.4% in assay [4]; -1.63% in assay [5].

Consider `CCN1CCN(Cc2ccc(-c3cc4c(N[C@H](C)c5ccccc5)ncnc4[nH]3)cc2)CC1`, for which the results for the activity change, negative = inhibition in assay [2], in assay [4] and in assay [5] were -20.6%, -54.7% and -65.3%, respectively.

As for `CC(=O)O[C@@H]1[C@H](O[C@@H]2OC[C@](O)(CO)[C@H]2O)[C@@H](O[C@@H]2O[C@@H](C)[C@H](O)[C@@H](O)[C@H]2O)[C@H](OC(=O)[C@]23CCC(C)(C)C[C@H]2C2=CCC4[C@@]5(C)C[C@H](O)[C@H](O[C@@H]6O[C@H](C(=O)O)[C@@H](O)[C@H](O)[C@H]6O)[C@@](C)(C(=O)O)C5CC[C@@]4(C)[C@]2(C)CC3)O[C@@H]1C` (stereo partly drawn), the activity change, negative = inhibition was 0% in assay [1]; 1.27% in assay [2]; 7.2% in assay [3]; -7.52% in assay [4]; 1.95% in assay [5].

On to `CC(C)C1=CC2=CCC3[C@](C)(CCC[C@@]3(C)C(=O)O)C2CC1=O` (stereo partly drawn), for which the activity change, negative = inhibition in assay [1] is 0.983%; in assay [2] it was 2.8%; in assay [3], 12.9%; in assay [4], -9.02%; in assay [5] it was 2.88%.

In the case of `CCN1CCC[C@H]1CNC(=O)c1c(O)c(Cl)cc(Cl)c1OC`, the activity change, negative = inhibition in assay [1] was -0.932%; in assay [2], 7.9%; in assay [3] it was 6.15%; in assay [4], -2.51%; in assay [5], 7.39%.

Turning to `COc1ccccc1CCN1C(=O)c2cc(-c3ccccc3)nn2CC1(C)C(=O)NCc1ccccc1` (stereo not drawn), the activity change, negative = inhibition in assay [1] was -0.066%; in assay [2] it was 3.02%; in assay [3] it was -1.34%; in assay [4] it was -6.77%; in assay [5] it was -6.62%.

For `COc1ccccc1CN1C(=O)c2c(NC(C)=O)c3ccccc3n2CC1(C)C(=O)NCCC(C)C` (stereo not drawn), the activity change, negative = inhibition in assay [1] amounted to 0.624%; in assay [2], 4.22%; in assay [3], 1.69%; in assay [4], 1.4%; in assay [5], 9.81%.

Consider `CN1C(=O)c2cc(NC(=O)c3cc(-c4ccncc4)nc4ccccc34)ccc2N2CCN=C12`, for which the activity change, negative = inhibition in assay [1] is -9.75%; in assay [2] it was -2.15%; in assay [3], -1.97%; in assay [4], -3.91%; in assay [5] it was -2.76%.

As for `O=C(NC1CCCC1)c1ccc2c(=O)n(Cc3ccccc3)c3nn(Cc4ccc(F)cc4)c(=O)n3c2c1`, the activity change, negative = inhibition in assay [1] came to 4.7%; in assay [2], 0%; in assay [3], 8.5%; in assay [4], 0.149%; in assay [5], 0.675%.

Regarding `CCn1c(=O)n(CC)c2cc(S(=O)(=O)Nc3ccc(OC)c(Cl)c3)ccc21`, the activity change, negative = inhibition in assay [1] was 7.94%; in assay [2], 1.81%; in assay [3], 11.3%; in assay [4] it was -19.7%; in assay [5] it was 7.94%.
